Laboratory results taken from paper PMC12040169 (PLOS Biology, 2025).
The other results are listed elsewhere or left out.

Tested on: T1, C. trachomatis L2/434/Bu expressing GFP (CTL2-GFP)
T1 construct: L2/434/Bu GFP intracellular growth in HeLa cells
Design: species or system HeLa; C. trachomatis total inclusion area by high-content imaging, normalised to DMSO
Conditions: total inclusion area; 28.5 h, 10 µM; inhibitor
Summary of the method: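 Following bulk GFP and resorufin fluorescence reads, infected cells were fixed, Hoechst-stained and imaged on a high-content platform. Inclusion total area and number per well served as growth proxies; nuclei counts indicated host viability. MICs were derived as for the fluorescence assay.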

Compound	% of control remaining
O=S(=O)(NCc1ccc(CNS(=O)(=O)c2ccccc2)cc1)c1ccccc1 [CBK265471]	96.9682
CCn1ncc(S(=O)(=O)N2CCCC(c3cccc(Cc4cccc(C)c4)n3)C2)c1C (stereo not shown) [CBK286244]	122.236
Cc1ccc2[nH]c(Cc3ccc(NC(=O)CCC4C(=O)Nc5ccccc54)cc3)nc2c1 (stereo not shown) [CBK285824]	106.737
Nc1ccc(C(=O)Nc2ccc(Nc3cc(-c4ccco4)ncn3)cc2)cc1 [CBK091099]	63.0463
O=C(O)CCCc1nc(-c2ccccn2)no1 [CBK010880]	48.0495
c1ccc(N2CCN(c3cccc(-c4ccc5c(c4)OCO5)n3)CC2)nc1 [CBK036851]	115.136
COc1ccc(/C=C(/NC(=O)/C=C/c2ccccc2)C(=O)O)cc1 [CBK264996]	103.801
CCn1cc(NC(=S)Nc2sc3c(c2C(=O)OC)CCC(C)C3)c(C(N)=O)n1 (stereo not shown) [CBK267032]	99.9836
NNC(=O)c1cc(-c2ccccc2)nc2ccc(Br)cc12 [CBK261762]	82.777
CN1CCC(N(C)Cc2cc(Cl)ccc2[N+](=O)[O-])CC1 [CBK261576]	110.887
O=C(c1nc(=O)[nH][nH]1)N1CCN(Cc2ccc(C(F)(F)F)cc2)CC1 [CBK298312]	101.016
O=C(Nc1ccc(Cl)c(Cl)c1)N1CCN(c2n[nH]c(=O)[nH]c2=O)CC1 [CBK297514]	104.943
O=C(O)C1CCN(C(=O)Nc2ccccc2Cl)CC1 [CBK161407]	81.2456
CCc1[nH]nc2c1C1(CN3CCC1CC3)C(C#N)=C(N)O2 (stereo not shown) [CBK267454]	88.7019
CCN(CC)C(=O)CN(CCc1ccc(OC)c(OC)c1)C(=O)NCc1c(Cl)cccc1Cl [CBK158743]	117.241
CCOC(=O)c1cccc(-c2ccc(F)cc2F)n1 [CBK149245]	101.849
COc1ccccc1-c1ccc(NC(=O)CCn2cnc3ccccc3c2=O)cc1 [CBK285711]	114.091
Cc1cccc(C(=O)N/N=C/c2ccoc2)c1O [CBK018727]	78.5458
O=C(c1cnn(-c2ccc(Cl)cc2Cl)c1)N1CCOCC1c1ncon1 (stereo not shown) [CBK304231]	49.4956
CCc1c(CC)c(OC(=O)C(N)C(C)C)c2ccccc2c1OC (stereo not shown) [CBK016484C]	84.5186
CCOc1cc(S(=O)(=O)NCCCn2ccnc2)ccc1Cl [CBK269874]	66.328
Cc1nc2c(oc3nc(-c4ccoc4)c4c(c32)CC(C)(C)OC4)c(-c2ccccc2)c1C(=O)O [CBK265286]	123.568
